Hit rate of the full screen: of about 310,000 compounds, about 14,000 (4.5%) showed an effect of 50% or more. Effects have a minus sign here. The list shows a part of the results.
target: human ether-à-go-go-related gene (hERG) potassium channel (human, UniProt Q12809); assay: primary screen, population patch clamp on CHO cells stably expressing hERG
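Also: peak tail current of the secondary pulse compared with the same well before compound.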

human ether-à-go-go-related gene (hERG) potassium channel, sequence (Q12809 whole entry, looked up): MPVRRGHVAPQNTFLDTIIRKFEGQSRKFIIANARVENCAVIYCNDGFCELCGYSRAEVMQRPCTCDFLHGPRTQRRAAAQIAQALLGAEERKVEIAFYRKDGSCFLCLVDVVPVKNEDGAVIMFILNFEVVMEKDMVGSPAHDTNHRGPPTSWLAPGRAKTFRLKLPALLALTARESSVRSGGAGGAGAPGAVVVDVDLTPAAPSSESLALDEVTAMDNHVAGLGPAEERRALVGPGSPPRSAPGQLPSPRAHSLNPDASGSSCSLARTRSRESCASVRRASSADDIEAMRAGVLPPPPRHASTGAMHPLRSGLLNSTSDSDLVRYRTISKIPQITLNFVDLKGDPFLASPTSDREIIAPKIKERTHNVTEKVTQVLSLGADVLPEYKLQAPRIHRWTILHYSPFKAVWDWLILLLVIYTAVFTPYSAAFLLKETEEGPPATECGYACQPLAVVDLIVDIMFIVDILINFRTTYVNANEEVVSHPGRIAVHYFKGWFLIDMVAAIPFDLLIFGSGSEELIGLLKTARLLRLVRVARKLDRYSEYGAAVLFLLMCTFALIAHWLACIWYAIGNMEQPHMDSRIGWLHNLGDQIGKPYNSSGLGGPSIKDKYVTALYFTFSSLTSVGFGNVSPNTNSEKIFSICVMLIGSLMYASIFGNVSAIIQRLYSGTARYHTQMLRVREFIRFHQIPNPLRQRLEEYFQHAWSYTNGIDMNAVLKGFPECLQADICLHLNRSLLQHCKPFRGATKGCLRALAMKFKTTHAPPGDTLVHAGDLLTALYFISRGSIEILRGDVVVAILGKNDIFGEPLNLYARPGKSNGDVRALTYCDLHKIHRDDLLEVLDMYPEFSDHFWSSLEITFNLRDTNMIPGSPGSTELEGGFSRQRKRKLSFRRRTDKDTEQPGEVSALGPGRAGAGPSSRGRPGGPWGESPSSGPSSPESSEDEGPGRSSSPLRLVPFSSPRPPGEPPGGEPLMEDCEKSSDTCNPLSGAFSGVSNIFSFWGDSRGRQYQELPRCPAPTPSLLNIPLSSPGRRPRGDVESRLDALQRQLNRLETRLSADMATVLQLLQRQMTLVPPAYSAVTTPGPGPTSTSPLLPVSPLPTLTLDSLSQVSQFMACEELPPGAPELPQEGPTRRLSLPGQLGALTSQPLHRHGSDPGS

| Structure (SMILES) | hERG current change (%, negative = inhibition) at 10uM [%] |
| --- | --- |
| C/C=C/CC1(CC)C(=O)NC(=S)NC1=O | 25.1 |
| CCOC(=O)c1ccc(NC(=O)Nc2ccc(OC)c(OC)c2)cc1 | 1.51 |
| CC(C)[C@H](NC(=O)OCc1ccccc1)C(=O)NCc1ccccc1 | 3.55 |
| O=C(NCCO)C(c1ccccc1)c1ccccc1 | -5.02 |
| Cc1ccc(C)c(NC(=O)c2cc([N+](=O)[O-])cc([N+](=O)[O-])c2)c1 | 9.62 |
| CC(=O)OCC1=C(C(=O)O)N2C(=O)C(NC(=O)C(C)Cn3cc(Cl)cn3)C2SC1 (stereo not drawn) | 23.1 |
| COCCNC(=O)c1ccc(N2CC3CC(C2)c2cccc(=O)n2C3)c(NC(=O)c2c(F)cccc2F)c1 (stereo not drawn) | 7 |
| COc1cccc(NC(=O)N2CCCC(C(=O)Nc3ccccc3OC)C2)c1 (stereo not drawn) | -28 |
| COc1ccc(CCC(C(O)C(F)(F)F)S(=O)c2ccccc2)cc1 (stereo not drawn) | 4.1 |
| Cc1ccc(C(=O)Nc2ccccc2N2CCCCC2)o1 | 2.4 |
| CC1Cc2ccccc2N1C(=O)CSc1nc2c(c(=O)n(C)c(=O)n2C)n1Cc1ccc(F)cc1 (stereo not drawn) | -3.14 |
| COc1ccc(/C=C/C(=O)Nc2cc(C(F)(F)F)ccc2Cl)cc1 | 6.51 |
| Cc1cccc(NS(=O)(=O)c2ccc(C(=O)NCC(c3ccco3)N3CCCCC3)cc2)c1C (stereo not drawn) | -55.6 |
| Cc1noc(C)c1COc1ccc(C(=O)OCC(=O)NC2CCCCC2C)cc1 (stereo not drawn) | -1.57 |
| O=[N+]([O-])c1ccccc1-c1ccc(CN2CCN(c3ccccc3)CC2)o1 | -9.96 |
| Cc1nc2cc(N3CCN(C)CC3)c(NC(=O)Cc3ccccc3)cc2c(=O)n1Cc1ccccc1 | -7.09 |
| Cn1c(C(=O)N2CCN(C(=O)c3ccco3)CC2)cc2c(=O)n3ccccc3nc21 | -14.5 |
| O=C(OCC(=O)N1CCc2ccccc21)c1cccc(S(=O)(=O)N2CCCc3ccccc32)c1 | 4.13 |
| CCN(CCCNC(=O)C1CCC(=O)N1C1CCCC1)c1cccc(C)c1 (stereo not drawn) | -2.31 |
| C=CCn1c(=O)n(CCC#N)c(=O)n(CCC#N)c1=O | 11.8 |
| Cc1cc(S(=O)(=O)N2CCCC2)ccc1OCC(=O)Nc1ccccc1 | 21.2 |
| CCCCCn1c(=O)c(C(=O)Nc2cc(C)ccn2)c(O)c2ccccc21 | 17.2 |

| Structure (SMILES) | hERG current change (%, negative = inhibition) at 10uM [%] |
| --- | --- |
| Cc1ccccc1OCC(=O)NN1CCN(C)CC1.Cl | 1.07 |
| Cc1ccc(-c2noc(CNS(=O)(=O)c3ccccc3)n2)cc1 | 13.8 |
| CC/C(=N\NC(=O)C1CCCC1)c1cccc(Br)c1 | 13.2 |
| CC1C(=O)Nc2ccccc2N1C(=O)c1ccc(Cl)cc1 (stereo not drawn) | 11.4 |
| O=C(/C=C/c1ccc(Cl)cc1)NC(=S)NN1CCCCC1c1cccnc1 (stereo not drawn) | -67 |
| COc1ccccc1CN1CCNC(=O)C1CC(=O)N(C)Cc1ccon1 (stereo not drawn) | 5.2 |
| CCCC1=C(C(=O)OCC)C(c2cc(Cl)cc(OC)c2OCc2ccccc2)NC(=O)N1 (stereo not drawn) | 4.73 |
| CCC(=O)Nc1cccc(NC(=O)c2cc3ccccc3o2)c1 | -8.5 |
| COc1cccc(OCCCn2cc(/C=C3/C(=N)N4C=C(C)SC4=NC3=O)c3ccccc32)c1 | 16.7 |
| Cc1cccc(CC(=O)Nc2cccnc2)c1 | 7.08 |
| O=C(Cn1c(=O)oc2cc(S(=O)(=O)N3CCCC3)ccc21)N1CCc2ccccc2C1 | -32.3 |
| O=C(Nc1nc(-c2ccccc2)cs1)c1ccc2c(=O)n3c(nc2c1)CCCCC3 | -23.8 |
| CCOc1cccc2cc(C(=O)NCc3ccc(F)cc3)c(=N)oc12 | 6.99 |
| Cc1cc(Cl)ccc1NC(=O)NC1CCN(S(=O)(=O)c2ccc(F)cc2)CC1 | -5.62 |
| O=C(O)c1ccc(N=Nc2c(-c3ccccc3)[nH]oc2=O)cc1 | 31.9 |
| Cc1cc(C)c(S(=O)(=O)N2CCN(C(=O)C(C)Cn3nc(C)nc3C)CC2)c(C)c1 (stereo not drawn) | 8.39 |
| CCOC(=O)c1ccccc1NC(=O)C1CC(=O)N(c2ccccc2)C1 (stereo not drawn) | -3.37 |
| Cc1ccc(C)c(N2C(=O)CN=C2Nc2ccccc2Cl)c1.Cl | 3.8 |
| O=C1C=C(NCc2ccco2)CCC1 | 16.7 |
| CCOc1ccc(-c2cc(CCCC(=O)NCc3cccnc3)no2)cc1 | -35 |
| CN(C)S(=O)(=O)c1cc(NC(=O)CN2CCN(c3ccccc3)CC2)ccc1Cl | -17.1 |
| O=C(NCC1CCCO1)c1cccc(NC(=O)c2ccc(Br)cc2)c1 (stereo not drawn) | -0.865 |

| Structure (SMILES) | hERG current change (%, negative = inhibition) at 10uM [%] |
| --- | --- |
| COc1cc(/C=N/NC(=O)CC2(C)OCCO2)cc(Br)c1O | 6.27 |
| O=C(CCNC(=O)c1ccc(Br)cc1)Nc1ccc(S(=O)(=O)Nc2ncccn2)cc1 | 5.02 |
| Cc1ccc(C(=O)O)cc1-c1ccc(C=C2C(=O)c3ccccc3C2=O)o1 | 1.32 |
| COc1ccccc1N1C(=O)CC(N2CCN(c3ccc(F)cc3)CC2)C1=O (stereo not drawn) | -1.99 |
| CCn1c(SCC(=O)NC(C)(C)C)nnc1-c1ccoc1C | -18.5 |
| COc1ccc(-c2cc(-c3nnc(COC(=O)C4CC4C)o3)c3ccccc3n2)cc1OC (stereo not drawn) | -10.3 |
| COc1ccc(C(N)c2nccc3cc(OC)c(OC)cc23)cc1OC (stereo not drawn) | 14 |
| O=C(CCN1C(=O)[C@@H]2Cc3ccccc3CN2C1=O)NCc1ccccc1Cl | -4.03 |
| Cc1ccc(-c2[nH]c3ccccc3c2C(C[N+](=O)[O-])c2ccco2)cc1 (stereo not drawn) | 8.51 |
| Cc1cccc(NC(=O)c2cccc(S(=O)(=O)Nc3ccccc3C(=O)O)c2)c1 | 12.2 |
| c1cncc(-c2csc(-c3cccnc3)n2)c1 | 13.7 |
| CCCCCCCC1CC(=O)C=C(C)C1C(=O)OCC (stereo not drawn) | -10.2 |
| CN(C)CCCN(Cc1cc2cc3c(cc2[nH]c1=O)OCCO3)C(=O)NC1CCCCC1 | 8.87 |
| CN(C)CCCNC(=O)CCC1CCCCC1 | 7.25 |
| O=C(CNC(=O)N1CC(=O)Nc2ccccc21)Nc1ccc(F)c(Cl)c1 | 21.6 |
| O=C(NCCN1CCOCC1)c1nn2c(c1Cl)NC(c1ccccc1)CC2C(F)(F)F (stereo not drawn) | -9.8 |
| CCOc1ccc(NS(=O)(=O)c2cc(NC(=O)c3ccc(C)cc3)ccc2Cl)cc1 | 10.9 |
| CCC(/C=N/NC(=O)c1ccccc1F)CC | 30.8 |
| CCC(Oc1cc(Cl)ccc1Cl)C(=O)NN1C(=O)C2C3CCC(C3=C(C)C)C2C1=O (stereo not drawn) | 1 |
| O=C(c1ccccc1-c1ncc[nH]1)N1CCCC(Nc2ccc(F)cc2)C1 (stereo not drawn) | 10.5 |
| COc1cccc(CCNC(=O)CCc2nnc(Cc3cc(OC)ccc3OC)o2)c1 | 11.1 |
| CC(OC(=O)CNC(=O)c1ccc2ccccc2c1)C(=O)N(C)C1CCCCC1 (stereo not drawn) | -27 |

| Structure (SMILES) | hERG current change (%, negative = inhibition) at 10uM [%] |
| --- | --- |
| CCOC(=O)N/N=C\c1ccc(OC/C=C/c2ccccc2)cc1 | 24.4 |
| O=C1C(=O)N(C2CCCC2)C(=O)N1Cc1c(F)cccc1Cl | 15.5 |
| C[C@H](NC(=O)c1[nH]cnc1C(=O)Nc1nccs1)c1ccccc1 | 3.5 |
| CCS(=O)(=O)N1Cc2ccccc2CC1C(=O)OCC(=O)Nc1ccc(C)cc1 (stereo not drawn) | -20.4 |
| N/C(COc1ncn(-c2ccccc2)n1)=N\S(=O)(=O)c1ccc(Cl)cc1Cl | -49.3 |
| CCOC(=O)C1=C(C)NC(=O)NC1c1ccc(N2CCC(c3ccccc3)=N2)cc1 (stereo not drawn) | -5.77 |
| Cn1cnnc1SCC(=O)NC1CCCc2ccccc21 (stereo not drawn) | 16.7 |
| Cc1ccc(OS(=O)(=O)c2cn(C)c(=O)n(C)c2=O)cc1C | -0.493 |
| CCOC(=O)CNS(=O)(=O)c1cc(-c2nn(C)c(=O)c3ccccc23)ccc1C | -52.8 |
| CCO[C@@H]1OC(C(=O)NC2CC2)=C[C@H](C)[C@H]1CCCO | 14.4 |
| COc1ccc(C2c3[nH]c4ccccc4c3CCN2CCCn2cccn2)c(F)c1 (stereo not drawn) | -3.85 |
| Cc1cccn2c(=O)c3cc(C(=O)NC4CCCC4)c(=N)n(CCCN4CCOCC4)c3nc12 | -74.7 |
| O=C(NN=C1CCCC1)c1[nH]c2ccc(Br)cc2c1-c1ccccc1 | 22.6 |
| O=C(Nc1ccc2nn(-c3ccccc3)nc2c1)c1ccc2c(c1)OCO2 | -6.91 |
| Cc1cc(C(F)(F)F)nn1CC(=O)N(C)c1ccccc1 | 15.4 |
| CCN(CC)CCC(=O)Nc1cccc2c1C(=O)c1ccccc1C2=O.Cl | -44.1 |
| O=C1/C(=C/c2ccccn2)COc2ccccc21 | 18.7 |
| COc1ccc(N2C(=O)C3CCCN3C2c2ccccc2F)cc1 (stereo not drawn) | -2.76 |
| O=C(CCS(=O)(=O)c1ccccc1)Nc1nc2c(s1)COc1ccccc1-2 | -28.1 |
| Cc1nc(-n2nnc(CO)c2CO)nc2c1CCC2 | 9.54 |
| CCOC(=O)c1ccccc1NC(=O)Cn1cnc2c1c(=O)n(C)c(=O)n2C | -0.395 |

Reference: paper PMC4336329 (PLoS ONE, 2015)
